Sequences with one replicate were seen in a single cluster, so their values are uncertain.
Tested on: ATP
Assay: switch fluorescence ratio, 500 uM ATP over buffer (Cy3 cluster intensity, sum of 5 cycles each) (fold (ratio)); higher = stronger signal-on switching upon ATP binding; sequences stand for … in TCGTCGGCAGCGTCAGATGTGTATAAGAGACAGTTTTTTTTTTTTTTTTTTTTTTTTT…TC
Details: aptamer strand: ATP DNA aptamer (quencher-CACCTGGGGGAGTATTGCGGAGGAAGG + anchor), 100 nM annealed; ATP concentration: 500 uM; one replicate
Outline: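 Switching-strand clusters labelled with Cy3 on a modified Illumina MiSeq flow-cell were annealed to 100 nM quencher-labelled ATP aptamer, imaged in selection buffer, and re-imaged after 15 min with 500 uM ATP at 22 °C. This was done over five cycles with NaOH stripping and re-annealing in between. The fluorescence ratio is summed target-cycle over summed buffer-cycle Cy3 intensity per cluster, averaged per switch-domain sequence, excluding clusters outside 100-1000 RFU.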
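Also: ATP exposure 15 min at 22 °C before imaging.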

Row | Sequence | switch fluorescence ratio
1 | CCACCCGAAG | 1.33
2 | CCACCGATTC | 3.83
3 | CCACGAAAGG | 1.24
4 | CCACGAGGGG | 0.999
5 | CCACGCAGGT | 1.76
6 | CCACGCTGCG | 0.946
7 | CCACGTCTTT | 1.01
8 | CCACGTGCGA | 1.1
9 | CCACGTGTCT | 0.985
10 | CCACTACGGG | 1.07
11 | CCACTGGTAT | 1.04
12 | CCACTTCGAC | 1.14
13 | CCAGAAGGTA | 0.996
14 | CCAGAATACG | 1.41
15 | CCAGAATGTG | 1.03
16 | CCAGAATTGC | 1.08
17 | CCAGACATCG | 1.06
18 | CCAGAGGAGT | 1.02
19 | CCAGAGTTCC | 1.02
20 | CCAGATCAGG | 1.01
21 | CCAGATTTTC | 1.01
22 | CCAGCACAGT | 1.05
23 | CCAGCAGTCG | 1.1
24 | CCAGCCACAG | 1.04
25 | CCAGCCCTGA | 0.97

Row | Sequence | switch fluorescence ratio
26 | CCAGCCGTAG | 1.02
27 | CCAGCCGTGT | 1.08
28 | CCAGCCGTTT | 0.994
29 | CCAGCCTGCA | 1.09
30 | CCAGCGCCAG | 1.08
31 | CCAGCGCTGT | 0.991
32 | CCAGCGGACC | 1.14
33 | CCAGCGTATT | 1.15
34 | CCAGCTTAGT | 1.01
35 | CCAGCTTGGG | 0.992
36 | CCAGCTTTCG | 1.09
37 | CCAGGACAGG | 1.03
38 | CCAGGATTTA | 1.01
39 | CCAGGCAACG | 1.04
40 | CCAGGCGTTC | 1.1
41 | CCAGGCTGGT | 1.04
42 | CCAGGTAGTA | 1.23
43 | CCAGGTATTA | 1.05
44 | CCAGGTCGTT | 1.29
45 | CCAGTCGGTG | 1.03
46 | CCAGTGAATT | 1.01
47 | CCAGTGATTG | 1
48 | CCAGTGTCCA | 1.02
49 | CCAGTGTGGG | 0.969
50 | CCAGTTAACT | 0.997

Row | Sequence | switch fluorescence ratio
51 | CCAGTTGAAT | 1.06
52 | CCATAATCTA | 0.987
53 | CCATACACGC | 1.19
54 | CCATACATAA | 1.07
55 | CCATACTCCA | 1.48
56 | CCATACTGTT | 0.931
57 | CCATAGAGCG | 0.995
58 | CCATAGGACG | 0.999
59 | CCATAGGGGT | 1.01
60 | CCATATATGG | 0.994
61 | CCATATCATG | 1.01
62 | CCATATCGCA | 1.91
63 | CCATATCTAG | 1.02
64 | CCATATTTCA | 1.03
65 | CCATCAGGGT | 1.07
66 | CCATCAGTCT | 1.03
67 | CCATCCCGTA | 1.14
68 | CCATCGCAGG | 3.08
69 | CCATCGGGCG | 0.988
70 | CCATCGGGGG | 1
71 | CCATCTGTCA | 1.03
72 | CCATGATTTA | 1.01
73 | CCATGCGGCT | 1.02
74 | CCATGCGTCA | 1
75 | CCATGCTAAG | 1.02

Row | Sequence | switch fluorescence ratio
76 | CCATGGCAGA | 1.07
77 | CCATGGGGTA | 0.995
78 | CCATGGTAAG | 0.988
79 | CCATGTGGTG | 1.08
80 | CCATTAACAT | 1.03
81 | CCATTAGAGA | 0.997
82 | CCATTCAAAT | 1.02
83 | CCATTCACTT | 1.05
84 | CCATTCGTTG | 1.03
85 | CCATTGCAGC | 2.17
86 | CCATTGGCAA | 0.997
87 | CCATTGTACA | 1.02
88 | CCATTGTTTG | 0.995
89 | CCATTTCCT | 1
90 | CCCAAAGTAA | 1.18
91 | CCCAAATGGT | 1.02
92 | CCCAATGAG | 1.04
93 | CCCACAAGGT | 1.61
94 | CCCACGGCCG | 1.02
95 | CCCAGACTTC | 1.04
96 | CCCAGCATAG | 3.51
97 | CCCAGCGAAG | 0.983
98 | CCCAGTTTTG | 1.04
99 | CCCATGCATT | 0.979
100 | CCCATGGATT | 1.03

Row | Sequence | switch fluorescence ratio
101 | CCCATGGCTA | 0.998
102 | CCCATTTTCT | 0.978
103 | CCCCAACGTA | 1.1
104 | CCCCAAGTGT | 4.78
105 | CCCCAATGCT | 1.28
106 | CCCCAGCAAG | 6.3
107 | CCCCAGTGCG | 3.61
108 | CCCCATGACT | 1.05
109 | CCCCCCACA | 2.28
110 | CCCCCGCGGT | 1.07
111 | CCCCCTCCTC | 1.24
112 | CCCCGCGGCG | 2.09
113 | CCCCGGGATA | 2.48
114 | CCCCGGGGCG | 1.07
115 | CCCCGGGTTG | 1.48
116 | CCCCGTCATG | 2.47
117 | CCCCGTCTTA | 1.12
118 | CCCCTGATAG | 1.18
119 | CCCCTGGCCT | 1.09
120 | CCCGAAGAGA | 1.06
121 | CCCGCACGTT | 1.36
122 | CCCGCGTGTG | 1.05
123 | CCCGGAAT | 2.08
124 | CCCGGACGTA | 1.04
125 | CCCGGCTAGT | 1.09

Row | Sequence | switch fluorescence ratio
126 | CCCGGGGTAG | 1.03
127 | CCCGTATACG | 1.1
128 | CCCGTCAGAA | 1.2
129 | CCCGTCTAGT | 1.01
130 | CCCGTTGGTA | 0.995
131 | CCCTAACATC | 1.05
132 | CCCTACATGG | 1.04
133 | CCCTAGTTAT | 1.07
134 | CCCTATACAC | 1.3
135 | CCCTCAACAG | 1.09
136 | CCCTCAGAAG | 1.1
137 | CCCTCCCTGA | 1.37
138 | CCCTCTGGGG | 1.07
139 | CCCTCTGTCT | 1.03
140 | CCCTCTTCCT | 1.37
141 | CCCTCTTTAG | 1.01
142 | CCCTGATGGC | 1.04
143 | CCCTGCCTCT | 1.06
144 | CCCTGGAGGC | 1.06
145 | CCCTGGGCGT | 1.15
146 | CCCTGTCTTA | 1.03
147 | CCCTTACTTA | 1.1
148 | CCCTTAGGAA | 0.99
149 | CCCTTCCTTG | 1.73
150 | CCCTTCTCAG | 1.13

Row | Sequence | switch fluorescence ratio
151 | CCCTTGAGAA | 1.01
152 | CCCTTTAGAA | 1.11
153 | CCCTTTGAGT | 1.02
154 | CCCTTTGGGG | 1.06
155 | CCGAAAAGTC | 1.15
156 | CCGAAACCGT | 1.15
157 | CCGAAATGTT | 1.06
158 | CCGACAACGG | 1.22
159 | CCGACCTTTT | 1.46
160 | CCGACTCTTG | 1.04
161 | CCGAGAGTAT | 1.25
162 | CCGAGCGGGT | 1.49
163 | CCGAGGAGTA | 1.17
164 | CCGAGGATGA | 1.12
165 | CCGAGGATTG | 1.02
166 | CCGAGTTTGG | 1.04
167 | CCGATAATGA | 1.4
168 | CCGATAGTTG | 1.08
169 | CCGATGTCAA | 3.88
170 | CCGATGTTAT | 2.67
171 | CCGATTCCCT | 1.01
172 | CCGATTTGCA | 1.67
173 | CCGCAAAAAG | 2.23
174 | CCGCAGGCCC | 4.13
175 | CCGCATCGTG | 1.98

Row | Sequence | switch fluorescence ratio
176 | CCGCCATAAT | 4.61
177 | CCGCCTCTAG | 1.91
178 | CCGCGAACGT | 1.54
179 | CCGCGGAGTC | 1.43
180 | CCGCGGCAAG | 4.46
181 | CCGCGGGAGC | 1.21
182 | CCGCGTGAAC | 4.18
183 | CCGCTCACGT | 1.45
184 | CCGCTGAGTT | 2.56
185 | CCGCTTATTA | 2.63
186 | CCGCTTGAGT | 1.16
187 | CCGCTTGTCT | 1.05
188 | CCGGAACGCT | 1.26
189 | CCGGATGGGG | 0.991
190 | CCGGATTGCT | 1.19
191 | CCGGCAGTTG | 1.15
192 | CCGGCATTGG | 1.48
193 | CCGGCCTGTG | 1.13
194 | CCGGCCTGTT | 0.995
195 | CCGGCGGCGG | 1.05
196 | CCGGGAAGAC | 3.58
197 | CCGGGAATGG | 1.7
198 | CCGGGACACA | 1.05
199 | CCGGGCAGTC | 2.74
200 | CCGGGCCAAA | 1.49
